# Measured values taken from paper PMC4336329 (PLoS ONE, 2015).
# Among all 310,000 compounds or so, about 2,200 (0.71%) showed an effect of 50% or more. Effects have a minus sign here. The list shows a part of the results.
# Target: human ether-à-go-go-related gene (hERG) potassium channel (human, UniProt Q12809)
# Assay: primary screen, population patch clamp on CHO cells stably expressing hERG
# Chain of human ether-à-go-go-related gene (hERG) potassium channel (Q12809 whole entry, looked up): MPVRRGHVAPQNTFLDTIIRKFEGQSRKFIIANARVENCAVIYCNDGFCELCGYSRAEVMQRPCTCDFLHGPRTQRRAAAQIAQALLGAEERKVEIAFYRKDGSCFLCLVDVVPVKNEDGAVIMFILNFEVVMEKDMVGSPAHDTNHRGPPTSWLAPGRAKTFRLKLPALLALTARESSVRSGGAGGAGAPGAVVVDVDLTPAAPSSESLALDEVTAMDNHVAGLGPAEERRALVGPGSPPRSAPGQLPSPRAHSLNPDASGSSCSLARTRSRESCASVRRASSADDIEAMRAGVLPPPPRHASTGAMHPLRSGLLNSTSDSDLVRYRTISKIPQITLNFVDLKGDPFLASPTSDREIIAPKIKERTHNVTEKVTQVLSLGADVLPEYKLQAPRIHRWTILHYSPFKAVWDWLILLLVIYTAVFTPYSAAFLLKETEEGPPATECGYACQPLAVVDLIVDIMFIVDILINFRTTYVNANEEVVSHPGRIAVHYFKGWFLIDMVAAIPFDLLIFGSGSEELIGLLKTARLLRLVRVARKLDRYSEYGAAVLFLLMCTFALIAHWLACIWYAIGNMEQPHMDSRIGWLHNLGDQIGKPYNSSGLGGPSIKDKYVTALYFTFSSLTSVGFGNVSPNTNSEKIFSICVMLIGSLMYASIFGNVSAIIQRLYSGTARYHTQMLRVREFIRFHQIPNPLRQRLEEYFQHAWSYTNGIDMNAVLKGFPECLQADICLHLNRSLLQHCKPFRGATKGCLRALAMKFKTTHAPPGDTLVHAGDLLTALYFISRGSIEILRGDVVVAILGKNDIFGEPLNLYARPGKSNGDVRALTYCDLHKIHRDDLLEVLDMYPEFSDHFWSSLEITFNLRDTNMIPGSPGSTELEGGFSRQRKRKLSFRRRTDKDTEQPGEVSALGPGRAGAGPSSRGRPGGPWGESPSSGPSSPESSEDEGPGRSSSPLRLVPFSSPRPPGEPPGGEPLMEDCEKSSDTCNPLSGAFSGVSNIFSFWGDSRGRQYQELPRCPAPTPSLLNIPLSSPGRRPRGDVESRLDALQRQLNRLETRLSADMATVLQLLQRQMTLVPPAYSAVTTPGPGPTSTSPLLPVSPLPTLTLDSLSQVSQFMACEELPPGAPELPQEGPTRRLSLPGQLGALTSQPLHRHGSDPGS
row,Structure (SMILES),"hERG current change (%, negative = inhibition) at 1uM"
1,COc1ccc(CCNC(=O)c2ccc3c(c2)OCO3)cc1,11.4%
2,O=C(O)c1ccccc1Nc1ccc([N+](=O)[O-])c2nonc12,-2.95%
3,O=C1c2ccccc2C(=O)C1(CO)c1ccc(OC(F)F)cc1,14.7%
4,COCCNC(=O)C(c1ccc(F)cc1)N(C(=O)CCC(=O)Nc1ccccn1)C1CCCCC1 (centres unmarked),18.5%
5,CCCc1cc2c(=O)c(-c3cscn3)c(C(=O)OCC)oc2cc1O,8.99%
6,COc1ccccc1C(=O)N(Cc1ccco1)C1CCS(=O)(=O)C1 (centres unmarked),5.68%
7,O=C(Cc1ccccc1)N(c1ccc(F)cc1)C1C=CS(=O)(=O)C1 (centres unmarked),2.58%
8,COc1cc2c(cc1OC)CN(C(=O)CSc1nc(C)cc(C)c1C#N)CC2,3.66%
9,COc1ccc(N=CC2=C(Nc3ccc(OC)cc3)c3c(C)nn(-c4ccccn4)c3CC2)cc1,0.785%
10,COc1ccc(NC(=O)C2CCCN(S(=O)(=O)c3cccnc3)C2)c(OC)c1 (centres unmarked),3.84%
11,C#CCOc1ccccc1CNC1CCN(Cc2ccccc2)CC1.O=C(O)C(=O)O,9.36%
12,Cc1cc(C(=O)OCc2nnc(-c3ccccc3)o2)c(C)n1-c1ccccc1,-18.8%
13,Cc1ccccc1CNS(=O)(=O)c1ccccc1[N+](=O)[O-],2.13%
14,COc1cccc(NC(=O)c2sc3ncn(CC(=O)N4CCN(c5ccccn5)CC4)c(=O)c3c2C)c1,3.32%
15,Cc1ccc(S(=O)(=O)N(CC(O)CN(C)C)c2ccccc2)cc1.Cl (centres unmarked),-43.8%
16,CCC1CCC/C1=N\NC(=O)c1ccoc1C (centres unmarked),23.8%
17,O=C(NCc1c(Cl)cccc1Oc1ccccc1)c1ccccc1,16%
18,Cc1nc(S/C(=C/c2ccc(-c3ccc(Cl)cc3)o2)C(=O)O)n[nH]1,13.9%
19,COc1ccc(Cl)cc1NC(=O)CCS(=O)(=O)c1ccc(Br)cc1,11.3%

row,Structure (SMILES),"hERG current change (%, negative = inhibition) at 1uM"
1,Cc1ccc(S(=O)(=O)N2CCN(C(=S)NCC3CCCO3)CC2)cc1 (centres unmarked),-0.199%
2,O=C(CSc1ccc(-c2ccc(F)cc2)nn1)NCCc1ccccc1,11.7%
3,O=C(O)CCNC(=O)/C(=C/c1ccco1)NC(=O)c1ccco1,19.5%
4,COC/C=C/C1=CC2=CC(=O)C(C)(OC(=O)c3cnc4ccccc4n3)C(=O)C2=CN1Cc1ccco1 (centres unmarked),11.5%
5,O=C(c1cccs1)N1CCN(S(=O)(=O)Cc2ccccc2)CC1,4.98%
6,OCCn1c(CSc2nc3ccccc3n2CCO)nc2ccccc21,-0.286%
7,CCn1cc(S(=O)(=O)NC(C)c2cc(OC)ccc2OC)cn1 (centres unmarked),3.63%
8,CC(C)C(=O)N1N=C2CCCCC2C1(O)C(F)(F)F (centres unmarked),8.65%
9,COc1ccc(NC(=O)C2CCN(S(=O)(=O)c3c(C)noc3C)CC2)cc1Cl,10.9%
10,COc1cc(CNC2CCCC2)cc(OC)c1OC.Cl,9.09%
11,COc1cccc(OCC(O)CN2CCN(c3ccccc3)CC2)c1.Cl (centres unmarked),0.228%
12,O=C(Nc1cccc(Cl)c1)OCc1cnc(Cl)s1,3.86%
13,CCOc1cc(C(=S)N2CCC(O)CC2)ccc1OS(=O)(=O)c1ccc(Br)cc1,8.18%
14,Cc1cc(C)n(CCN(C)Cc2cn[nH]c2-c2ccc(F)cc2F)n1,5.23%
15,COc1ccc(C(=O)NC(=S)Nc2ccc(Cl)cn2)cc1OC,11.5%
16,Cc1ccc(SCC(=O)OCC(=O)NC2(C#N)CCCCC2)cc1,-1.54%
17,COc1ccc(NC(=O)c2ccccc2)cc1NS(=O)(=O)c1ccc(F)cc1,-0.0034%
18,CN(C)C(=O)COc1ccc(Br)cc1,6.59%
19,O=C(Nc1cnn(Cc2c(Cl)cccc2Cl)c1)C(c1ccccc1)c1ccccc1,7.45%

row,Structure (SMILES),"hERG current change (%, negative = inhibition) at 1uM"
1,c1ccc(-c2nnn(C34CC5CC(CC(C5)C3)C4)n2)cc1,1.72%
2,O=c1[nH]c2cnccc2n1-c1ccccc1,8.23%
3,CCCCn1c(N2CCC(Cc3ccccc3)CC2)nc2c1c(=O)[nH]c(=O)n2C,2.69%
4,COc1ccc2nc(NC(=O)c3cccnc3SC)sc2c1,11.3%
5,CSCCC(N=C1NS(=O)(=O)c2ccccc21)C(=O)N1CCCC(C(N)=O)C1 (centres unmarked),12.5%
6,c1ccc(-c2cn3nc(-c4ccccc4)c(-c4ccccc4)nc3n2)cc1,7.88%
7,C=CCOc1ccc(/C=C/C(=O)OCc2csc(CC(=O)Nc3ccccc3C)n2)cc1,15.3%
8,O=C(NCc1ccc2c(c1)OCO2)C(C(=O)c1ccccc1)n1cc(Cl)ccc1=O (centres unmarked),12%
9,Cc1ccccc1-c1nc(CS(=O)(=O)CC(=O)NC2CC2)c(C)o1,15.1%
10,CCN(CC(=O)Nc1ccc(OC)cc1)C(=O)Cc1ccsc1,2.98%
11,COc1cc(SC)ccc1C(=O)NCCOc1ccc(Cl)cc1,2.33%
12,CCOc1ccc(CCNC(=O)CN2C(=O)NC3(CCCC3)C2=O)cc1OCC,12%
13,CCn1c(SCC(=O)Nc2ccc(OCc3ccccc3)cc2)nnc1-c1ccco1,9.71%
14,CC(C)N(C(=O)CSc1nnc(Cc2ccc3c(c2)OCO3)n1C)C(C)C,3.49%
15,COc1cccc(C(=O)N/N=C(\C)c2cccc(NC(=O)c3ccc(F)cc3)c2)c1OC,0.263%
16,CNc1ccc(Br)cc(C(=O)/C=C/c2ccc(Cl)cc2Cl)c1=O,-1.21%
17,CC(NC(=O)CCCc1nnc2n(C)c(=O)c3sccc3n12)c1ccccc1 (centres unmarked),14.5%
18,Cc1cccc(NS(=O)(=O)c2cccc(C(=O)N3CCCCCCC3)c2)c1,5.66%
